Data on 51 molecules can be found in publication PMC12040169 (PLOS Biology, 2025).

Some of the results follow.

This test concerns T1, C. trachomatis L2/434/Bu expressing GFP (CTL2-GFP).
T1 construct: L2/434/Bu GFP intracellular growth in HeLa cells
More on the design: species or system HeLa; C. trachomatis total inclusion area by high-content imaging, normalised to DMSO. The settings on record: total inclusion area; 28.5 h, 10 µM; inhibitor. The essentials:
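Imaging read-out: GFP inclusions and Hoechst nuclei captured by high-content imaging after fixation. Inclusion area/number = chlamydial growth; nuclei count = host cell viability. MIC calculated per earlier method.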
Take `O=C(NC1CCNC1)c1ccc(F)cc1` (stereo not drawn) [CBK281632]: the “% of control remaining” value worked out at 110.159.

`CSC1CCC(N(C)C(=O)NCCc2cn3cccc(C)c3n2)C1` (stereo not drawn) [CBK305324]: the “% of control remaining” value was 111.224.

On to `Cc1ccc2c(c1)cc(C(=O)N1CCOC(C(=O)N3CCCCCC3)C1)n2C` (stereo not drawn) [CBK286032], for which the “% of control remaining” value was 132.25.

Consider `CCN(CC)CCn1c(=N)n(CC(O)c2ccc(C)cc2)c2ccccc21` (stereo not drawn) [CBK262914C], for which the “% of control remaining” value came to 37.4957.

Regarding `COC(=O)c1cccc2c(C)c(C)[nH]c12` [CBK001563], the “% of control remaining” value is given as 100.352.

Turning to `O=C(O)c1ccc(NC(=O)c2ccccc2NC(=O)c2cccc(Br)c2)cc1` [CBK265517], the “% of control remaining” value was 97.4851.

Regarding `COc1cc(CNC(=O)NC(=O)C2CCN(C(C)=O)CC2)cc(OC)c1OC` [CBK034833], the “% of control remaining” value was determined as 101.203.

Regarding `Cc1noc(C)c1NC(=O)c1ccnc2ccccc12` [CBK200302], the “% of control remaining” value was found to be 111.484.

As to `Cc1cc([N+](=O)[O-])ccc1NC(=O)Cn1cnc2c1c(=O)n(C)c(=O)n2C` [CBK263162], the “% of control remaining” value was 109.197.

Consider `O=C(c1ccco1)N1CCN(c2ccc(-c3cccc4cccnc34)cn2)CC1` [CBK037640], for which the “% of control remaining” value is reported as 100.506.

As to `NC(=O)c1cc(C2CCCN(CC(=O)NCc3cccs3)C2)n[nH]1` (stereo not drawn) [CBK305361], the “% of control remaining” value is given as 57.017.

As to `CC(Cc1ccccn1)NC(=O)Cn1ccnc1` (stereo not drawn) [CBK282069], the “% of control remaining” value is recorded as 95.3788.

`O=c1[nH]c2ncc(-c3ccncc3)nc2n1CC1CC1` [CBK064539]: the “% of control remaining” value amounted to 145.004.

Take `O=C(c1ccncc1)N1CCc2cc(-c3csc(C4CC4)n3)ccc21` [CBK288618]: the “% of control remaining” value came to 100.659.

Consider `CCOc1cc(/C=N/Nc2nnc(C)n2N)ccc1O` [CBK027460], for which the “% of control remaining” value is recorded as 11.5161.

As to `O=C1NCCNC(=O)C2(CCCCOc3ccccc31)CCNCC2` [CBK292074], the “% of control remaining” value is on record as 69.643.

On to `O=S1(=O)CCC(Sc2nncc3ccccc23)C1` (stereo not drawn) [CBK021586], for which the “% of control remaining” value amounted to 85.6694.

For `CCC(c1ccc2c(c1)CCO2)N1CCN(Cc2nc(C)no2)CC1` (stereo not drawn) [CBK304237], the “% of control remaining” value was found to be 51.3914.

Regarding `COCc1nc(C)c(C(=O)NC2CCCN(c3ccn(C)n3)C2=O)s1` (stereo not drawn) [CBK306497], the “% of control remaining” value is 60.17.

As for `Cc1cc(C)nc(N(C#N)CC(=O)N2c3ccccc3CCc3ccccc32)n1` [CBK266509], the “% of control remaining” value came to 91.7198.

Turning to `COc1ccccc1N1CCN(C(=O)Nc2ccc(Cl)cc2)CC1` [CBK155597], the “% of control remaining” value turned out to be 101.207.

As for `O=C(CCCN1C(=O)c2cccc3cccc(c23)C1=O)Nc1cccnc1` [CBK262560], the “% of control remaining” value is 97.4935.

On to `CC(C)C(NC(=O)N1c2ccccc2NC(=O)C1C(C)C)C(=O)O` (stereo not drawn) [CBK286670], for which the “% of control remaining” value was 67.033.

Regarding `COc1ccc(-c2nn(-c3ccccc3)cc2/C=C2/SC(=S)N(Cc3ccccc3)C2=O)c(C)c1` [CBK265107], the “% of control remaining” value is 106.168.

In the case of `O=C(NCc1cccnc1)c1ccccc1NS(=O)(=O)c1ccc(F)cc1` [CBK269754], the “% of control remaining” value stood at 79.661.

`Cc1cc(NS(=O)(=O)c2ccc(Oc3ccc(-c4ccccc4)cc3)nc2)no1` [CBK295343]: the “% of control remaining” value is given as 94.9103.

`CC(=O)Nc1ccc(-c2ccc(C(=O)NCc3ccc(S(C)(=O)=O)cc3)cn2)cc1` [CBK158860]: the “% of control remaining” value is reported as 64.6165.

For the molecule `O=C1CCCN1CCOc1nccnc1-c1ccsc1` [CBK106759], the “% of control remaining” value came out at 89.5188.

For `CCS(=O)(=O)N1CCCCCC1c1nn(C)cc1Cl` (stereo not drawn) [CBK284672], the “% of control remaining” value is on record as 95.4392.

On to `O=C(O)Cc1ccc(NC(=O)c2cccnc2C(=O)O)cc1` [CBK267397], for which the “% of control remaining” value came out at 89.1915.

Regarding `CCNC(=S)N[C@H]1CC[C@@]2(Cc3ccc(OC)cc3)CCN(C)[C@H]2C1` [CBK004257], the “% of control remaining” value amounted to 109.789.

As to `CCC(C)(C)c1ccc(S(=O)(=O)N2CCN(Cc3ccc(C(C)=O)cc3)CC2)cc1` [CBK062826], the “% of control remaining” value is listed as 76.5195.

`O=C(CCn1c(C(F)(F)F)cc2cccnc21)N1CCOCC1` [CBK284869]: the “% of control remaining” value came to 114.239.

On to `O=C(NNCc1ccccc1)c1cc(Br)cnc1N1CCN(C(=O)c2ccco2)CC1` [CBK076460], for which the “% of control remaining” value is 78.536.

`Cn1ccnc1C(NC(=O)Cc1ccc(O)cc1)c1ccccc1` (stereo not drawn) [CBK283723]: the “% of control remaining” value was determined as 86.3763.

`COC(=O)CCCC(=O)n1ccn(CCc2cccs2)c1=O` [CBK106612]: the “% of control remaining” value is recorded as 96.7078.

Consider `O=C(O)CSc1nc2ccc(NC(=O)c3ccccc3Cl)cc2s1` [CBK299791], for which the “% of control remaining” value was 96.8243.

`COc1cccc(C2(NC(=O)c3c(C)noc3C)CCCC2)c1` [CBK283659]: the “% of control remaining” value is 79.3512.

Regarding `C/C(=N\NC(=O)Cc1ccc([N+](=O)[O-])cc1[N+](=O)[O-])c1ccccc1O` [CBK261175], the “% of control remaining” value worked out at 79.7298.

As to `CCc1cc(CNS(=O)(=O)c2cc(C)ccc2F)on1` [CBK283064], the “% of control remaining” value came out at 70.3328.

In the case of `CCc1nc2ccc(C(=O)N3CCC(O)(Cc4ccccc4)CC3)cn2c1N(CC)C(=O)CCC1CCCC1` [CBK146854], the “% of control remaining” value turned out to be 100.397.

`CN1CCN(C(=O)c2ccc(-c3cncc(-c4ccc(O)cc4)n3)c(F)c2)CC1` [CBK126752]: the “% of control remaining” value was 106.079.

Consider `COC(=O)c1cc(C#N)c(=O)n(CC(O)COc2cccc(Br)c2)c1` (stereo not drawn) [CBK304984], for which the “% of control remaining” value amounted to 7.605.

For the molecule `CCC(O)CNS(=O)(=O)c1ccc(OC(F)(F)F)cc1` (stereo not drawn) [CBK043557], the “% of control remaining” value is recorded as 55.2057.

On to `Cn1nc(NC(=O)COCC(=O)O)c2ccccc21` [CBK057114], for which the “% of control remaining” value is reported as 82.2301.

Take `NS(=O)(=O)c1ccc(NC(=S)NC(=O)c2ccc(Cl)cc2Cl)cc1` [CBK266265]: the “% of control remaining” value is listed as 82.3902.

As for `O=C(O)CN(c1ccccc1[N+](=O)[O-])S(=O)(=O)c1ccccc1` [CBK263158], the “% of control remaining” value turned out to be 105.75.

In the case of `CC(=O)NC1(c2ccccc2F)CCN(CC(=O)N(C)C)CC1` [CBK283618], the “% of control remaining” value was found to be 94.0071.

For the molecule `COc1cc(NC(=O)COc2ccc3ccccc3c2)c(C(=O)O)cc1OC` [CBK264181], the “% of control remaining” value was found to be 102.879.

On to `OC1(c2cccnc2)CCN(CC2(c3ccc(Cl)cc3)CC2)CC1` [CBK282780], for which the “% of control remaining” value was 90.2078.

For `O=C(c1ccc2ncccc2c1)N1CCC(c2ccncc2)CC1` [CBK283684], the “% of control remaining” value is 80.6991.
